The source gives no read counts; variants with many changes may rest on few reads.
B1: CPEB3 Ribozyme (parent)
chain: UAACAGGGGGCCACAGCAGAAGCGUUCACGUCGCAGCCCCUGUCAGAUUCUGGUGAAUCUGCGAAUUCUGCUGUAUAUCUC

Variants of: B1
Test: self-cleavage, relative activity (ratio to wild type); higher = more cleavage; in vitro, sequencing
Outline: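 Libraries of CPEB3 self-cleaving ribozyme mutants came from rounds of error-prone PCR and carried barcodes, which DNA sequencing matched to variants. In vitro transcription used T7 RNA polymerase at 37°C for 5 hours, with a further 15 min in DNase I before EDTA stopped the reaction; the ribozymes cleaved during both steps. The RNA was reverse transcribed with template switching and sequenced on Illumina. Relative activity is the cleaved/total read fraction of a variant divided by that of the unmutated ribozyme, averaged over three batches with at least 5 reads.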

Variant	self-cleavage
A13G U74A A77G	1.22
A13U A18C A57G A65G	0.14
A13G G22C A28G A47U A64G	0.1
A13G A20C A65U U67A U72A	0.06
A13G A28G U48G U60C G63U A77G	0.24
A13U A18G U51C	0.87
A13U A28G U31C U72A	0.09
A13U A20G U43C U51A G53A A75G U80C	0.48
A13G C23G C32U A75G	0.19
A13G A35G U66C	0.38
A13G C14U A45G U51C U54A U76A	0.88
A13U A18G U31C U72C	0.13
A13G C14U A21U A65G U66C	0.05
A13G A20U A35G A57G	0.13
A13G A18G U48C	0.18
A13U A18U A21G C23A U31A A45G U67A	0.08
A13G A20G U25C U43C G52U A57G U72C	0.8
A13G U41A G46A U67A	0.17
A13G A45G U72C U78A	0.92
A13G U60C U69A U78C	0.35
A13G C32A U41C U67A U72C	0.09
A13G A18U U26C	0.17
A13G U49A A56G U58A U67C	0.09
A13G A28G U41A A57G U69C	0.19

Variant	self-cleavage
A13G C44U G63A U74C A75G	0.73
A13G A47G U60C U66A U72G	0.13
A13G A28U U60C	0.17
A13G U31C C40A U41C U60C A75G U78C	0.04
A13G A28C U51A A56G A57G G63C U80C	0.09
A13G A20G U76A	0.81
A13U A21G U25A U72A	0.07
A13G C32A U58C C59U U69C U78A	0.05
A13G G19C U25C G53A	0.29
A13U A28G C39U A45G	0.26
A13G A20U U26C C29U U48C A64G A75G	0.04
A13G U41C U49A A57G G73A U78C	0.67
A13G C29U C38U U51C	0.28
A13G C29A U49A U51A	0.21
A13G A21C U80A	0.1
A13G U25A C40U A57G U60G C62U A77U	0.09
A13G A56G U60A C68G A75G U78C	0.12
A13G A28G U48C	0.26
A13G C32U U58C	0.11
A13G U25A A56G	0.31
A13G A45G A47G	0.37
A13U A21U U58A U60A	0.14
A13G A35G U41A U67A	0.17
A13G U26C C40U C68G	0.13

Variant	self-cleavage
A13G A21G G30C U51C	0.05
A13G C23U U26C A45C U69C	0.15
A13G A28U C39G G55A	0.12
A13U A21G U67A A77G	0.09
A13U A21U A28G A45G U66C U78C	0.06
A13G A18G U25A A56C	0.14
A13G C14U A18G A35U U48C U72C	0.16
A13G U25C C37U U41A G70C A77G U78C	0.03
A13G A18U U69C	0.18
A13G C17U A28G A47G A64U	0.23
A13G C32A U48C A56G U80C	0.08
A13G U60C C79A	0.71
A13U A21G A45G U60C C62U	0.51
A13U A18G A28G A35C A64U	0.1
A13G U49C U80C	0.66
A13G U49C U80A	0.42
A13G U25C U74A	0.47
A13U A15G C23A U66C U67C U72C	0.07
A13G U25C U31A C34U A64G	0.05
A13G U31A U58A	0.22
A13G G46A U60C	0.2
A13G A21G G22A U49C A57U U72C	0.04
A13G A21G U67C	0.12
A13U A15U U43C A65G U69A U72C U78A	0.11

Variant	self-cleavage
A13G A47G A64G	0.69
A13U A28U A56G U72G	0.24
A13G U31C U72A	0.25
A13G U31C A56U U69C	0.13
A13U A20U U43A U80A	0.95
A13G U41C U78C	0.94
A13U A20G A77U U78C	0.73
A13U A28G A35U A56U C62U U72C U78C	0.09
A13G G19C A20G	0.11
A13G A35G U54G A57U U58C G73A	0.24
A13G A56G A57G U66C U69C	0.08
A13G U43A U72C	0.88
A13G A28G G63A U66C	0.08
A13G G19U U26C	0.11
A13U A28G U80A	0.99
A13G U58C U60A U80A	0.15
A13G U49C A56U U69A	0.05
A13G G22A U41C U60G A65G	0.05
A13G A21C A45C A77G	0.06
A13G U49C U72C	0.13
A13G U41C U54C A56U A64U U76C	0.1
A13G A21U A35G G55U U69C	0.07
A13U A15G G16U A20G A21G A35U A56G	0.05
A13G A28G C29U U43C G61A U78C	0.05

Variant	self-cleavage
A13G A28U U49C A56G A65U	0.08
A13G A35G U41C U54C A65U U67A	0
A13G A21G U48C U49C U58C U60A	0.11
A13U A21G A28G U31C A56U U69A A75U	0.08
A13U A21G A47G U76A	0.5
A13G U25A C39A U41G A64U U80A	0.16
A13G A21U A56G A57C	0.1
A13U A15G A35G A56G	0.77
A13G A28U G73A	1.08
A13U A18U A45C A57C A64G U80C	0.03
A13G U25C C44A A45U U58A	0.17
A13G U58C A64U	0.1
A13G A20G U43A U76A	1.12
A13G A21U U41A C44A	0.21
A13U A20G U41C U43C	0.31
A13U A21G U60C U74C	0.18
A13G G63U A75G	1.07
A13U A21G A65G U67G U72C	0.14
A13G U25C U31C	0.26
A13G U51C U78C	0.97
A13G G16U U78C	0.3
A13G U26C A57G	0.45
A13G U25C A56G U69C	0.08
A13G A20U U72C	0.12

Variant	self-cleavage
A13G A20U U72A	0.12
A13G U51A A64U U66C	0.31
A13G A18U U58C A64U U69A A77G	0.09
A13G A57C U60A A65U	0.08
A13U A20C U31A	0.12
A13U A21G U51A U58C A77G	0.06
A13G A18G U41C U66C	0.21
A13G U25C G61A U78C	0.08
A13G C40U A47G	0.62
A13U A20U A35U A64G A65G U69C	0.05
A13G U67C U80A	0.11
A13G C32U C39U A45U	0.21
A13G U25A U72C	0.06
A13U A18U A35U U54C U78C	0.13
A13G U69C A77G C79U	0.84
A13G A18G U43A A56G	0.11
A13G U26C C40A U51G	0.23
A13G U25C A35U A56G G63A	0.1
A13G U26C A57G U60C A65G	0.08
A13U A28C U78C	0.77
A13G U43A U51C	1.07
A13G A45U G55A A77G	0.24
A13G A45C U60C	0.35
A13U A21G C23A U72C	0.1

Variant	self-cleavage
A13G A21G C32U	0.1
A13G G53U U67C C79A	0.3
A13G A21C A77U	0.44
A13G A18U A20G G70A U72C	0.12
A13G A18U C29G	0.1
A13G U67C A77G	0.17
A13G U41A A57G U78C	0.3
A13G C59U U60C	0.12
A13G A21G U51A A56U G70A C71G	0.18
A13U A15G U41C G55A	0.47
A13G U51C U69C	0.36
A13G A20G U26A A45G U60C	0.22
A13G U41C U48C A56U U72A	0.1
A13U A20U A35G U76C U80C	1.1
A13G A18G C32U U43A A47G U54C A57G	0.03
A13G A28G U69A	0.27
A13U A15U A21U A45U A64G	0.08
A13G G63C C68A	0.21
A13U A15U A28G U41G A56U A64G	0.11
A13U A21G U72C	0.07
A13U A20G A28G A45U	0.19
A13G A20G U41C U48C A56G A64G	0.17
A13G U48C U66A	0.34

Reference: the RNAGym collection of RNA variant scans (doi:10.1093/nar/gkz1192)
